The supplement of paper PMC11417369
This is one part of the list.

System: PfSIP2 AP2 domain 1 (GST-tagged)
Assay: gcPBM binding intensity (ln(normalized median fluorescence intensity)); higher = stronger DNA binding
Procedure, shortened: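 Plasmodium falciparum DNA-binding domains carrying a GST tag were expressed in E. coli and applied for 1 h, at about 25 μg on average, to an Agilent 4 × 180k array. The array held primer-extended double-stranded 36-bp intergenic genomic probes together with negative controls, and binding took place in 1× PBS with 1% milk, 0.2 mg/ml BSA, 0.5% salmon testes DNA and 0.03% Triton X-100. An Alexa488 anti-GST antibody detected bound protein, and the array was scanned at 488 nm. Binding intensity is taken as the highest Masliner-normalised natural-log median intensity across replicate spots of either probe orientation.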

Point of comparison: “AAAAAAATACAAATATGTACACATATATATTTAAAA [XGTACX_site4729]”, “gcPBM binding intensity (ln)” value 6.9. Against it:
- ATATATACATATAATTGTACTTGTGTTGTTTTTCTT [XGTACX_site1870] — higher, 7.19
- TGTAGATATTATATATGTACGCATATGAAATATATA [XGTACX_site1586] — lower, 6.86
- TAATTATATAAATATTGTACAAAAAAAATATATATA [XGTACX_site3137] — higher, 7.19
- TTCAAAATATATATTTGTACATATAGGATCTTTTTC [XGTACX_site4500] — lower, 6.89
- AAAATATATAATATAACACACATATATTCTATATGG [CACACA_site4044] — higher, 6.91
- GTAATATCAATATAAAGTACACACTATAGTATGTAT [XGTACX_site4714] — higher, 6.98
- TCTTTTTTTTTTTTTTTTTTTTTTTTTTTTTTTTTT [GTGCAC_negctrl_site18] — higher, 9.1
- ATTTTAATGACATATACACACAAAGGTTCATAACAA [CACACA_site5664] — higher, 6.91
- ATAAAACCAACATAGAGTACAGATCGACTATGTTTC [XGTACX_site4329] — higher, 7.05
- TTTTCTTTTTAAATTACACACACATATATATATGTA [CACACA_site9172] — higher, 7.05
- AAAAAAGAAAAGAAATGTACAGAGCTTATCTTTTTA [XGTACX_site5677] — lower, 6.43
- TTCAATTTTACATGTAGTACATAAATTATACACAAA [XGTACX_site4946] — higher, 7.49
- TTATTCCTATTTGGATGTACATTTTAATATAAACAT [XGTACX_site4386] — higher, 6.93
- TTTTTTAATTTTACATGTACATACAGGTTTTTTTTT [XGTACX_site4539] — higher, 7.05
- AATGATAAAAATAAATGTACAGAATGATATTTTTTT [XGTACX_site5976] — higher, 7.02
- ATTAATAAATAAATGACACACACACCCACAAAAAAA [CACACA_site8839] — higher, 7.17
- AAAAAATTGTTTCCCTGTACTCAAAAAAAAAAAAAA [XGTACX_site8070] — higher, 7.11
- TAAAATTTACGGTCTTGTTGCGCAACCAACATTGTC [CACACA_negctrl_site1175] — higher, 6.94
- TAATAATAGTAAATATGTACATATATATATATATAG [XGTACX_site4602] — higher, 7.52
- GTTTTTTTTTTTTTGGTGCGTCATTTTCAAAAGAAG [GTGCAC_site9745] — higher, 9.53
- GTATGTATGTATGTATGTACTTATTTATTTATTTAT [XGTACX_site1921] — higher, 8.21
- TAAATTTAAAATGACACACACTAAAATTATTTAAGT [CACACA_site4816] — lower, 6.84
- ACCTTTAATATATACACACACATAAAAAAAATATAT [CACACA_site1843] — higher, 7.83
- AAATATTCATAGTATACACACATTTATTTATAACCA [CACACA_site6502] — the same, 6.9
- TAAAAGTATTCCTTTTGTACATATAATGAAAACAAT [XGTACX_site2069] — lower, 6.8
- CTGTTTTTACTAAGTTGTACAAATGATGATACCCTA [XGTACX_site630] — higher, 7.58
- ATACAATAATATAAATGTACAAATTATATCTTAATT [XGTACX_site6004] — higher, 6.98
- CTATATTTTTAAAAATGTACTTTATAATAAAATACT [XGTACX_site3593] — higher, 7.15
- ATTTAAAATAGAAGTTATATTTATATGGGTGAAAAA [GTGCAC_negctrl_site296] — higher, 6.97
- GGAATAACCGGACACACACACACATATATATATATA [CACACA_site5874] — higher, 9.37
- TTATTCATACAATATCGTACATATATATATATATAT [XGTACX_site1185] — higher, 9.59
- TCTAATCTGGAGAAAAGTACATAGTATCTGGTAACA [XGTACX_site2540] — lower, 6.81
- ATTATATATATATATACACACACATATATATATATA [CACACA_site8373] — higher, 9.52
- GTACACCTATAATATACACACAACAAATATGCACAT [CACACA_site6603] — higher, 8.84
- ATCTTATATATATGTGTGCACGTATATATAAGCAAT [GTGCAC_site9933] — higher, 9.5
- TTATAAATAAAAAGAGTGCAATTATAAATATATATA — higher, 8.97
- AAATAAAATATGAACAGTACTTTTGATATAACCATT [XGTACX_site1873] — the same, 6.9
- TACACGCATAAACACACACACACACCCATATATATA [CACACA_site8114] — higher, 7.6
- TTTATATTTAAAGAAACATGCATTTATCATATATAC [TGCATGCA_site173] — higher, 7
- CAATTTATAAAGAAAACACACATATACCTATATACA [CACACA_site6710] — lower, 6.84
- TCTATAATATTTTTCACACACCATTTCCTTAAACAC [CACACA_site6747] — higher, 7.26
- TTTGTTGACGAACACACACACATACATATTTATATA [CACACA_site7141] — higher, 7.18
- AAAAAAATAAAATACAAAATGGCTATACAAAATAAA [GTGCAC_negctrl_site535] — higher, 6.93
- ATTTTTTTATTTTGAAGTACATAAACTTTATATATA [XGTACX_site1746] — higher, 7.54
- ATTACATATGTCGCTTGTACGCATAATTTTTTTATA [XGTACX_site5782] — higher, 7.27
- ATTTAAAAAAAAAGACGTACATTTATATAGAATCCT [XGTACX_site6457] — higher, 7.04
- AAAAAATATACATATTGTACATTTTTTATTAACACA [XGTACX_site6415] — higher, 7.07
- ATAAATTTACATTTTTTTTTTTTTTTTTTTTTTTTT [GTGCAC_negctrl_site689] — higher, 8.6
- GTATAGTACAAATAAGTGCATATAAAAGAAATACAG — higher, 8.56
- TAATTTTTATTCAGTTCACACACGCTTTAATATTAT [CACACA_site9147] — lower, 6.89
- ATTACCAAAAAAAGGTGTACAAATATAATTATGAAA [XGTACX_site44] — higher, 7.58
- TTTTCCTTTCACAATGGTACACAAATATACATGCAA [XGTACX_site7244] — higher, 7.26
- ATTTTTTTTCGTAATTGTTCTTAATGTTGAATTATA [CACACA_negctrl_site1135] — higher, 7.06
- TAGTAATATGTATCCATACACACATACATTTTATTT [CACACA_site873] — higher, 6.95
- AGCTATATAAATAATACATGCATTGTTCAGGTATTT [TGCATGCA_site964] — lower, 6.83
- ATTTATAATATTCAAGTGCATATATATTTTTTACTT — higher, 8.31
- TACATAAATTAATAGTCACACACGTATTTTTTATAT [CACACA_site8806] — lower, 6.87
- TAGTTCCTCAAAAATTTCCTTTGTCATTTTATTCAC [GTGCAC_negctrl_site20] — lower, 6.73
- TAAAGAAATTCTTCATGTACTTATTATTTCTCTTTT [XGTACX_site6817] — lower, 6.81
- GTTATACAAAATAATACATGCATGTCCTACATATAT [TGCATGCA_site320] — higher, 7.07
- TATGGAATAAATTTATCCATACATCTTATAACATAT [XGTACX_negctrl_site500] — lower, 6.78
- TGTATTCCTTTTTATAGTACAATTTAAAAGTATAAA [XGTACX_site2045] — higher, 7.33
- GTACGTTTCTCCAGACTGCACTATACGACTCGTACA [GTGCAC_site9771] — higher, 8.21
- AGAAAGATGCAAGAAACATGCAAAAAAAAAATTTCT [TGCATGCA_site725] — lower, 6.64
- CACAAATATACAAATACACACAAATATACTCATATA [CACACA_site5339] — lower, 6.87
- AAAAAATTATATAATAATAGAACTATACATTTTATT [GTGCAC_negctrl_site645] — lower, 6.71
- ACATAATATATATATTGTACAAATATATTATTGTTA [XGTACX_site3385] — higher, 7.08
- AGCCACGGGTTATATACACACATAATCAAATAAAAT [CACACA_site6117] — higher, 6.94
- ATTTTTAATGGATAAGTGCATAATATTATGATGCAA — higher, 8.46
- TATGTAATAAAATATACACACAATATACTTATATAT [CACACA_site3682] — higher, 7.06
- AATACATTTATGAGCTGTACACATTTATTTGAGCTA [XGTACX_site7695] — lower, 6.89
- AGTGTAATTTTCCACTGTACTTTTCTTGTATATAAT [XGTACX_site4201] — higher, 6.91
- ATATATATTAATATTTGTACATAAAATTATTTCAAT [XGTACX_site5364] — higher, 7.14
- TACCTTTCTTATTATTGAAAAGGAATATATAAATAG [CACACA_negctrl_site272] — higher, 6.92
- AATAATAATTTGAATACACACAATAATATATATATA [CACACA_site2059] — higher, 8.45
- ATACAAAAAATCACATGTACATATTCTTAAATGGTA [XGTACX_site8502] — higher, 7.1
- TTATATCATTTTCCTGCACACATAAATTTATATAAT [CACACA_site8257] — higher, 7.58
- ACAAAATATACAAAATGTACAAAATATACAAAATGT [XGTACX_site6467] — higher, 6.98
- CATATGTATTTATTCACACATATATATATATATATA [CACACA_site4207] — higher, 9.38
- TATACAGATAAATACACACACACATATATATATATA [CACACA_site4845] — higher, 9.39
- TTATTCTAAAAGTGTTTGCACTTTTATAATCATATA [GTGCAC_site9929] — higher, 8.02
- TATATAAAATAATAATGTACTCATTAAAATTATAGA [XGTACX_site4507] — higher, 6.96
- AAAGAAAAAAAAAAAAAAAAAAAAAAAATTATACAT [CACACA_negctrl_site7] — lower, 6.73
- GAATTTCGATATATGTGTACGCATTTGTATTATAGG [XGTACX_site6332] — higher, 7.26
- TACATATTGCACAAATAAAAAAGAACAAAAAAAAAA [CACACA_negctrl_site1200] — higher, 7.42
- ATATATATATATATATGTACATATATTCGATTATTA [XGTACX_site557] — higher, 9.84
- ATAATATTTCTTACCTTTGGATGTTCTAATTTTTTT [CACACA_negctrl_site1317] — lower, 6.87
- TACTTTATATTATATATATATATATATATATATATA [CACACA_negctrl_site1765] — higher, 9.12
